Results on seven substances are retold here after PMC2991254.

The chains behind the UniProt entries cited, without tags or fusion partners. Where a name states a change or a piece, a line headed by the entry shows the natural chain unless it says otherwise. A line that says so, or that is headed by a name, gives the form on record, which may keep a tag or linker.
UniProt Q39081: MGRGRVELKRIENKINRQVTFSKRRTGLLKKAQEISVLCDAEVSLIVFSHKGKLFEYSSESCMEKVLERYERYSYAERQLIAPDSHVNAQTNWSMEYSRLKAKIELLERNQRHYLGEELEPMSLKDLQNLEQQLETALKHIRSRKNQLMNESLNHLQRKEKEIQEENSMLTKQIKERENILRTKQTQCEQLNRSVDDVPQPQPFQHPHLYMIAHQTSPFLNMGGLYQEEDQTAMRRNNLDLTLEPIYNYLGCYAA
UniProt Q9SZJ6: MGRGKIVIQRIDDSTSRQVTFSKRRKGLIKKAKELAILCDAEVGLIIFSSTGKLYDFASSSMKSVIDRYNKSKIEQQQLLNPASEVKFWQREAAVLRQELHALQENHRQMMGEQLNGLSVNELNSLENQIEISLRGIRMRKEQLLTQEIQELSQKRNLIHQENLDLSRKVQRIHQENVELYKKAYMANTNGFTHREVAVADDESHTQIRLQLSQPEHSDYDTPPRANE
UniProt P29382: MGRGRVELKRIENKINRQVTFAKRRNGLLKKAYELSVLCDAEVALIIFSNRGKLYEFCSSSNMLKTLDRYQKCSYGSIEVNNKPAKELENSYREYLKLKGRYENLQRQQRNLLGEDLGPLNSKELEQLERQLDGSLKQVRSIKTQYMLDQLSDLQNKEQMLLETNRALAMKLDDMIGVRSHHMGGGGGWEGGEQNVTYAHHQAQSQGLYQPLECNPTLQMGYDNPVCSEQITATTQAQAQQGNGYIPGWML
UniProt O22456: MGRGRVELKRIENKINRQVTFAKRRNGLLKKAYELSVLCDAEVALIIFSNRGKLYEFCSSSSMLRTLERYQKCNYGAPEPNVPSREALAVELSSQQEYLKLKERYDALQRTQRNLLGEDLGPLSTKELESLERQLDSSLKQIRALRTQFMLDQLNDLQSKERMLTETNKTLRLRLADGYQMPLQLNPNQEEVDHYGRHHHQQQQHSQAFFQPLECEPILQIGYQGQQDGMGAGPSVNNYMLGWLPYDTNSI
UniProt Q38836: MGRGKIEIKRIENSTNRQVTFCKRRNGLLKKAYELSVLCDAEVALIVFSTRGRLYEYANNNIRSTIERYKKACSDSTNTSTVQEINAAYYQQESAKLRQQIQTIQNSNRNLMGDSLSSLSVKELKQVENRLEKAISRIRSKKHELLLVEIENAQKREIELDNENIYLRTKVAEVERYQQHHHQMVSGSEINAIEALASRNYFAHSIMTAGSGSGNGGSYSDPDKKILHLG
UniProt P17839: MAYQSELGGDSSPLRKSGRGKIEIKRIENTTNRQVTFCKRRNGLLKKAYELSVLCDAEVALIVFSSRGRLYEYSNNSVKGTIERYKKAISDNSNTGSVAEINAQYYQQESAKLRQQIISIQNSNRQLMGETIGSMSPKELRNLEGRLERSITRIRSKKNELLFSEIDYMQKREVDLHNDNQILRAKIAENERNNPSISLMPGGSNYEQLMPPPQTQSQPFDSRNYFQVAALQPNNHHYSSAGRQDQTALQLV
UniProt P29381: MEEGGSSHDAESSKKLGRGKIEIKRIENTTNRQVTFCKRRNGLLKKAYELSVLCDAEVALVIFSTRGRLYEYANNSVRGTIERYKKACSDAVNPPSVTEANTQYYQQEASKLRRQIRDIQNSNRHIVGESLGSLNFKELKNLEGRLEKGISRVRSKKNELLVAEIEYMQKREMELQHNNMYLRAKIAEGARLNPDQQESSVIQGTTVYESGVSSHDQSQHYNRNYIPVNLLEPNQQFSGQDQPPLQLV
UniProt O64645: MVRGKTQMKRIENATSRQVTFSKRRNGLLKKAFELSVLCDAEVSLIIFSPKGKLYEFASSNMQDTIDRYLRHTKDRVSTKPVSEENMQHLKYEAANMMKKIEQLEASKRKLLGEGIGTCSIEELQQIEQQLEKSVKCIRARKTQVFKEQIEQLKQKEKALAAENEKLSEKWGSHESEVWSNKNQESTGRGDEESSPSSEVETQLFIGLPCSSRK
SOC1 MQD62-64SIPK (O64645, form named): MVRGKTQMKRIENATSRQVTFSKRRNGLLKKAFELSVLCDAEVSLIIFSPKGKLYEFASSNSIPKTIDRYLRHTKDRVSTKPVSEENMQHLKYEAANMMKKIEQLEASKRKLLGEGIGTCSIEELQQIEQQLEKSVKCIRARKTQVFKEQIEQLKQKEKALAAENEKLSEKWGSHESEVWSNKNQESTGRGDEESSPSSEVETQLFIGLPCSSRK
UniProt O82743: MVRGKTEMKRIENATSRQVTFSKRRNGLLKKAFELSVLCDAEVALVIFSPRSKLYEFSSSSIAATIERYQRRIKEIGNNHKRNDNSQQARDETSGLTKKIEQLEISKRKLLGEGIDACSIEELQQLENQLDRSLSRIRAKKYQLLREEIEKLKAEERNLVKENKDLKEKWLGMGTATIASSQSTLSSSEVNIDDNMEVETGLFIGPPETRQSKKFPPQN
UniProt O82794: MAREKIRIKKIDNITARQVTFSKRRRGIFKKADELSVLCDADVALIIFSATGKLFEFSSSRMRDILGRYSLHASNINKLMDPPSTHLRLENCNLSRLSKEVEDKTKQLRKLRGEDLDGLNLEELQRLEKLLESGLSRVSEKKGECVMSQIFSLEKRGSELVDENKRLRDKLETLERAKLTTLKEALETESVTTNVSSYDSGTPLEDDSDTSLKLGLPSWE
UniProt P29386: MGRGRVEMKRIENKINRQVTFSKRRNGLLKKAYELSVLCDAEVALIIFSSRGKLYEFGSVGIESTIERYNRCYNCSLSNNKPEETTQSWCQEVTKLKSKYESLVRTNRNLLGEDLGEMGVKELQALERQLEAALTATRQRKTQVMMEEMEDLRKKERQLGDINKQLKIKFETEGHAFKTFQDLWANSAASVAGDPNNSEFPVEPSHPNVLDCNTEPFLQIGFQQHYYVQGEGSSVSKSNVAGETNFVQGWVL
UniProt Q9S7Q7: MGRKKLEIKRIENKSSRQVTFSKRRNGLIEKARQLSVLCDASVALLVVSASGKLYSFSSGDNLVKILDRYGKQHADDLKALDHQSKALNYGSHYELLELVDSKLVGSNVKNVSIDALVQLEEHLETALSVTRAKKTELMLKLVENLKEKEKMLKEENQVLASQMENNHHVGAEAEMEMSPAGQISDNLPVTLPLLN

Results are given in words; binding and its absence hold for the method and conditions named. Some results given as binding are weak or reduced against the parent protein; the word gives no strength.

Holding throughout (assay): two-hybrid; matrix-based yeast two-hybrid, GAL4-AD and GAL4-BD fusions (pDEST22, pDEST32), in duplicate, at least two reporter genes; medium lacking Leu, Trp and His with 1 mM 3-amino-1,2,4-triazole, growth scored after 4 days at 20°C
In general terms: A reporter such as luciferase makes a cellular process visible.

The target of assay [1] is CAULIFLOWER (Arabidopsis thaliana) (UniProt Q39081).
Assay [2] concerns the target AGL21 (Arabidopsis thaliana) (UniProt Q9SZJ6).
Assay [3] addresses SEP1 (Arabidopsis thaliana) (UniProt P29382).
For assay [4], the target named is SEP3 (Arabidopsis thaliana) (UniProt O22456).
In the next assay the target is … (Arabidopsis thaliana) (UniProt Q38836).
In assay [5] the target is AGAMOUS (Arabidopsis thaliana) (UniProt P17839).
For assay [6], the target named is SHORT … PHASE (SVP1) (Arabidopsis thaliana) (UniProt Q9FVC1).
For assay [7], the target named is T1, AGL15 (Arabidopsis thaliana) (UniProt Q38847).
T1 sequence: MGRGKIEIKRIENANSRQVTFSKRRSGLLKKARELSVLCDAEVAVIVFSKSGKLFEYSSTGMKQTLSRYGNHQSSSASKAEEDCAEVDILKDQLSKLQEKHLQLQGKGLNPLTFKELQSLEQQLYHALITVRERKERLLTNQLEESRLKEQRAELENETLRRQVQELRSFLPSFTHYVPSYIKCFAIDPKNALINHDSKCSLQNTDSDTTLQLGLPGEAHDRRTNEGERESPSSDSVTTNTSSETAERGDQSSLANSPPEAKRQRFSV

Assay [8] addresses …OOF1 (Arabidopsis thaliana) (UniProt P29381).
For assay [9], the target named is SUPPRESSOR OF OVEREXPRESSION OF CO 1 (Arabidopsis thaliana) (UniProt O64645).
The target in assay [10] is AGL19 (Arabidopsis thaliana) (UniProt O82743).
The target of assay [11] is AGAMOUS-LIKE24 (Arabidopsis thaliana) (UniProt O82794).
Assay [12] concerns the target T2, XAL1 (Arabidopsis thaliana) (UniProt Q38841).
T2 sequence: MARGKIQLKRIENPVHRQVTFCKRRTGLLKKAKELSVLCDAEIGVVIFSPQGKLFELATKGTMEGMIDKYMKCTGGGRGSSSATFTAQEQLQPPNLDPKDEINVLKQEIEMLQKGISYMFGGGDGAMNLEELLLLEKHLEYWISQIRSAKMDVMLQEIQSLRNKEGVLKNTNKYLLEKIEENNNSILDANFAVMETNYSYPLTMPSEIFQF

Assay [13] addresses AGL6 (Arabidopsis thaliana) (UniProt P29386).
The target in assay [14] is FLOWERING LOCUS C (Arabidopsis thaliana) (UniProt Q9S7Q7).

Regarding “CAL V66I/N150Y (from UniProt Q39081 1-255)”, the binding result (in assay [1]; in [2]; in assay [3]; in [4]; with … (Arabidopsis thaliana); in assay [5]) was “no binding” in each case. Further, the binding entry in assay [6], in assay [7], in assay [8], in [9], in assay [10] and in assay [11] was “no binding” each time. Moreover, the binding result in [12], in [13] and in assay [14] was “no binding” each time.

As to CAULIFLOWER (from UniProt Q39081 1-255), the binding entry (in [1]; in [2]; in [3]; in assay [4]; with … (Arabidopsis thaliana); in assay [5]) was “no binding” throughout. The binding result is listed as “no binding” in assay [6]; “no binding” in assay [7]; “no binding” in assay [8]; “binds” in [9]; “no binding” in assay [10]; “no binding” in assay [11]. Further, the binding result in assay [12], in assay [13] and in assay [14] was “no binding” in each case.

In the case of “SOC1 MQD62-64SIPK (from UniProt O64645 1-214)”, the binding result in assay [1] was “no binding”; in [2] it was “binds”; in assay [3], “binds”; in assay [4], “binds”; with … (Arabidopsis thaliana), “no binding”; in assay [5] it was “no binding”. Also, the binding entry was “binds” in [6]; “no binding” in assay [7]; “no binding” in assay [8]; “binds” in assay [9]; “no binding” in [10]; “binds” in assay [11]. The binding entry in assay [12], in assay [13] and in assay [14] was “no binding” in each case.

Take SVP1 C58S (from UniProt Q9FVC1 1-240): the binding result is listed as “no binding” in assay [1]; “binds” in assay [2]; “binds” in assay [3]; “binds” in assay [4]; “no binding” with … (Arabidopsis thaliana); “binds” in assay [5]. Moreover, the binding entry in [6] is given as “no binding”; in [7], “no binding”; in assay [8] it was “binds”; in assay [9], “binds”; in assay [10], “no binding”; in assay [11] it was “no binding”. Besides, the binding entry was “no binding” in [12], “no binding” in [13] and “binds” in [14].

With “SVP1 C58S/S61R (from UniProt Q9FVC1 1-240)”, the binding result in assay [1] is “no binding”; in assay [2] it was “binds”; in assay [3] it was “no binding”; in assay [4], “binds”; in the assay with … (Arabidopsis thaliana) it was “no binding”; in assay [5], “no binding”. In addition, the binding result in assay [6] was “no binding”; in [7] it was “no binding”; in assay [8] it was “no binding”; in assay [9], “binds”; in [10], “binds”; in assay [11], “no binding”. For the same substance, the binding result in assay [12], in assay [13] and in assay [14] was “no binding” each time.

With “SVP1 EFCSSS56-61D (from UniProt Q9FVC1 1-240)”, the binding result is recorded as “no binding” in assay [1]; “binds” in assay [2]; “no binding” in assay [3]; “no binding” in assay [4]; “no binding” with … (Arabidopsis thaliana); “no binding” in assay [5]. Moreover, the binding result in [6] is “no binding”; in [7] it was “no binding”; in assay [8], “no binding”; in [9] it was “binds”; in assay [10] it was “no binding”; in assay [11] it was “no binding”. In addition, the binding result in assay [12], in assay [13] and in assay [14] was “no binding” throughout.

With SVP1 S61R (from UniProt Q9FVC1 1-240), the binding result in assay [1] is given as “no binding”; in assay [2] it was “binds”; in assay [3] it was “binds”; in assay [4], “binds”; in the assay with … (Arabidopsis thaliana), “no binding”; in [5], “binds”. In addition, the binding result in assay [6] was “no binding”; in assay [7], “no binding”; in assay [8] it was “no binding”; in assay [9], “binds”; in assay [10], “no binding”; in assay [11], “no binding”. The binding result in assay [12], in assay [13] and in assay [14] was “no binding” in each case.
